Reference: PubChem BioAssay AID1508624 (National Center for Advancing Translational Sciences (NCATS), 2021)
Screen size: about 48,000 compounds; about 120 (0.25%) were called active. About 4% were inconclusive and are not listed. Calls come from the whole dose curve; as a rule, active = well fitted activation curve with a large enough effect; inconclusive = small, poorly fitted or top-dose-only effect, or another doubt; inactive = no such curve, though single readings can be large or run the other way. The list shows a part of the results.

Test: Primary qHTS for Identification of Small Molecule Activators of Huntingtin-Antisense Promoter Activity; note: nearly all actives have a fitted effect of over 55% in size
Details: HEK293 HTT-AS promoter firefly luciferase reporter, 24 h; series mostly up to 57.5 µM; activity change, positive = activation: at the top concentration
Summary of the method: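 Luminescence was read after Dual-Glo reagent and a 10 min room-temperature incubation. Values were normalized to vehicle (0% activity) and zero RLU (-100% activity). Reporter HEK293 cells had been exposed to compounds (up to 57.5 uM final) for 24 h.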

Row | Structure (SMILES) | activity change, positive = activation
1 | CC1CCc2c(cc(-c3ccccc3)n2-c2ccc(C(=O)NC(C)C)cc2)C1 (stereo not drawn) | inactive: -38.3%
2 | CCc1cccc(OCC(=O)Nc2ccc(S(=O)(=O)Nc3ncccn3)cc2)c1 | inactive: -1.91%
3 | CC(C)(C)c1ccc(OCc2nc3ccccc3n2CCOc2ccccc2)cc1 | inactive: 36.8%
4 | Cc1cccc(C)c1OCc1nc2c3cnn(-c4ccccc4F)c3ncn2n1 | inactive: -4.96%
5 | COc1cccc(NC(=O)CSc2nc3c([nH]c4ccccc43)c(=O)n2-c2cc(C)cc(C)c2)c1 | inactive: -21.8%
6 | CC(=O)c1ccc(S(=O)(=O)N2CCn3cccc3C2c2ccccc2F)cc1 (stereo not drawn) | inactive: -25%
7 | Cc1cc(C)cc(NC(=O)Cc2csc(C)n2)c1 | inactive: -11.9%
8 | CCSc1ncc(Cl)c(C(=O)Nc2nnc(CC)s2)n1 | inactive: 3.64%
9 | O=C(c1ccccc1F)N1c2ncnn2C2(CCCCC2)[C@@H]2CCCC[C@@H]21 | inactive: -6.76%
10 | Cc1cccc(Nc2nc(N)nc(N)c2S(=O)(=O)c2ccccc2)c1 | inactive: -17.9%
11 | CCC(C(=O)NCCc1ccccc1)n1nc(C)c2sc3ccccc3c2c1=O (stereo not drawn) | inactive: -17.2%
12 | COc1ccc(C2=C(C)C(N3CCC(C(=O)Nc4ccccc4F)CC3)=NS2(=O)=O)cc1 | inactive: -7.23%
13 | Cc1c(C)n(Cc2ccc(F)cc2)c2ccc(C(=O)N3CCN(c4ccc(F)cc4)CC3)cc12 | inactive: -21.9%
14 | O=C(C1CCN(c2ncnc3c2nc2n3CCCCC2)CC1)N1CCN(c2ccccc2F)CC1 | inactive: -38.5%
15 | CCOc1ccc2oc(=O)cc(CN3CCN(C(=O)c4ccc(OC)c(OC)c4)CC3)c2c1 | inactive: -16.7%
16 | Cc1ccc(N2C(=O)c3n[nH]c(C)c3C2c2ccc(Cl)cc2)cc1 (stereo not drawn) | inactive: 21.2%
17 | CCOC(=O)c1[nH]c2c(c1Cc1ccccc1OC)C(=O)CC(c1ccc(OC)cc1)C2 (stereo not drawn) | inactive: -26.7%
18 | CCc1ccc(-n2c(=O)c3c4c(sc3n(Cc3cc(=O)n5c(C)cccc5n3)c2=O)CCC4)cc1 | inactive: -13.6%
19 | Cc1ccc(CNC(=O)c2nn(-c3ccc(Cl)cc3)nc2CO)cc1 | inactive: -19.3%
20 | Cc1ccccc1CSc1nnc2[nH]c(=O)cc(-c3ccccc3)n12 | inactive: 0.291%
21 | CCOC(=O)c1ccccc1NC(=O)Cn1ncc2c1-c1ccccc1OC2 | inactive: -24.5%
22 | Cc1cc(C)cc(NC(=O)CSc2oc(-c3ccccc3)nc2S(=O)(=O)c2ccc(Cl)cc2)c1 | inactive: -11.2%
23 | Cc1ccc(NC(=O)Cn2nc(C(F)(F)F)c3c2CCCC3)cc1C | inactive: -17.9%
24 | N=C1N=C(N)c2cc3ccccc3cc21 | inactive: -70.6% [at 116 µM, percent change from vehicle, -100% = no light]

Row | Structure (SMILES) | activity change, positive = activation
25 | CCc1ccccc1NS(=O)(=O)c1ccc2nc(-c3ccccc3)[nH]c2c1 | inactive: -37.2%
26 | CC(C)OCCCNC(=O)C(=O)Nc1c2c(nn1-c1ccccc1)CS(=O)(=O)C2 | inactive: -9.19%
27 | CC(=O)NC(CS)C(=O)O (stereo not drawn) | inactive: -8.5%
28 | Cc1ccc2c(c1)N(CC(=O)NCCc1ccccc1)C(=O)CO2 | inactive: -20.5%
29 | COc1ccc(-c2nc3ccccc3n3c(-c4cccc(C)c4)c4c(=O)n(C)c(=O)n(C)c4c23)cc1OC | inactive: -36.7%
30 | CCC(C)NC(=O)c1c(C)oc2ncn(CC(C)C)c(=O)c12 (stereo not drawn) | inactive: -4.93%
31 | O=C(CCS(=O)(=O)c1cc(Br)cc2c1N(C(=O)C1CC1)CC2)N1CCN(c2cccc(Cl)c2)CC1 | inactive: -8.77%
32 | CCOc1ccccc1OCC1CNCCO1 (stereo not drawn) | inactive: -3.87%
33 | O=C(Cn1c(=O)n(CCc2ccccc2)c(=O)c2cccnc21)Nc1ccc(F)cc1 | inactive: -11.7%
34 | CCCCNC(=O)C1CCC(Cn2c(=O)c3sccc3n(Cc3ccccc3)c2=O)CC1 (stereo not drawn) | inactive: -9.29%
35 | CCC(=O)N1CCc2cc(S(=O)(=O)NC(C(=O)NCCc3ccc(OC)c(OC)c3)C(C)C)ccc21 (stereo not drawn) | inactive: 4.47%
36 | Cc1cc(C)c(NC(=O)c2nc3ccccc3nc2N2CCCCC2)c(C)c1 | inactive: 4.94%
37 | CCCCNC(=O)CSc1nc2cc3c(cc2c(=O)n1CCCC(=O)NCCc1ccc(OC)c(OC)c1)OCO3 | inactive: -13%
38 | CC1=C(C(=O)OC2CCCC2)C(c2c(Cl)cccc2Cl)CC(=O)N1 (stereo not drawn) | inactive: -33.4%
39 | COc1cc(NC(=O)C2CCN(C(=O)c3sc4nc[nH]c(=O)c4c3C)CC2)cc(OC)c1OC | inactive: 0.883%
40 | CCCn1c(CCC(=O)Nc2cc(C(=O)OC)cc(C(=O)OC)c2)nc2cccnc21 | inactive: -18.5%
41 | COC(=O)c1scc(-c2ccc(C)cc2)c1S(=O)(=O)Nc1cc(Cl)c(OC)cc1OC | inactive: -19.6%
42 | CCCCOc1ccc(Cn2c(=O)sc3ccccc32)cc1OC | inactive: -18.9%
43 | CCCn1c(CCC(=O)Nc2cc(OC)cc(OC)c2)nc2cccnc21 | inactive: -8.69%
44 | CCOC(=O)c1[nH]cnc1C(=O)Nc1cccc(OC)c1 | inactive: -12.1%
45 | C[C@H]1COC2=C1C(=O)C(=O)c1c2ccc2c1CCCC2(C)C | inactive: -21.4%
46 | N#CC1(c2cccc(C(=O)Nc3cc(Oc4ccc5nc(NC(=O)C6CC6)sc5n4)ccc3F)c2Cl)CC1 | inactive: -4.46%
47 | Cc1cc(NC(=O)CCn2c(=O)c3cccn3c3cccnc32)ccc1Br | inactive: -2.34%
48 | NC(=O)Cc1cccc(C(=O)c2ccccc2)c1N | inactive
